“And” between values parts separate entries of the source, which are not always exact repeats. Equal entries are not always repeated. The inconclusive results got no clear call from the source; some entries with a clear call stand among them for comparison. A potency beside an inconclusive call is a rough fit, not a confirmed value. The source holds several records for some structures; these can differ, active in one and inactive in another. The source made the active and inactive calls. Calls come from the whole dose curve; as a rule, active = well fitted curve in the direction sought with a large enough effect in the repeat runs; inconclusive = weak or mixed curves; inactive = no such curve, though single readings can be large; an effect the other way counts as inactive or inconclusive.
What was measured:
[1] = molecular target: Cytochrome P450 1A2 (Homo sapiens) (UniProt P05177); assay: Cytochrome P450 Family 1 Subfamily A Member 2 (CYP1A2) small molecule antagonists: luciferase reporter qHTS assay (AID 1671199)
Chain of UniProt P05177 (P05177 whole entry, looked up): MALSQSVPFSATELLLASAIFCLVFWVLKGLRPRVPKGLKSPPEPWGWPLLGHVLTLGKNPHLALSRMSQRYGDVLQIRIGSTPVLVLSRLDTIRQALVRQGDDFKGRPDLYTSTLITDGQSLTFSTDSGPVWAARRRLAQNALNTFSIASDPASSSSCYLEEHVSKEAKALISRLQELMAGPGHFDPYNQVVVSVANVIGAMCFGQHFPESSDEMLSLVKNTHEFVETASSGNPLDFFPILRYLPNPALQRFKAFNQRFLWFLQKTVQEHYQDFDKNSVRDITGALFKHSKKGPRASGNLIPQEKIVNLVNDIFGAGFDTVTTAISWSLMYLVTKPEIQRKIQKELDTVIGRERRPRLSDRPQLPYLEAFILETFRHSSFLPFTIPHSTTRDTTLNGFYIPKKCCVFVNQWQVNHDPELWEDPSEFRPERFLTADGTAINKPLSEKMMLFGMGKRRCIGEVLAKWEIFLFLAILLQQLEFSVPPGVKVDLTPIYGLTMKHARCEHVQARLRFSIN
Summary of the method: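 Signal from luciferin formed by CYP1A2 from a proluciferin substrate is read as luminescence, expressed in relative luminescence units. Compounds sit with enzyme 10 min, NADPH-driven reaction runs 1 h, all at room temperature.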

[2] = molecular target: Cytochrome P450 3A4 (Homo sapiens) (UniProt P08684); assay: Cytochrome P450 Family 3 Subfamily A Member 4 (CYP3A4) small molecule antagonists: luciferase reporter qHTS assay (AID 1671201)
Chain of UniProt P08684 (P08684 whole entry, looked up): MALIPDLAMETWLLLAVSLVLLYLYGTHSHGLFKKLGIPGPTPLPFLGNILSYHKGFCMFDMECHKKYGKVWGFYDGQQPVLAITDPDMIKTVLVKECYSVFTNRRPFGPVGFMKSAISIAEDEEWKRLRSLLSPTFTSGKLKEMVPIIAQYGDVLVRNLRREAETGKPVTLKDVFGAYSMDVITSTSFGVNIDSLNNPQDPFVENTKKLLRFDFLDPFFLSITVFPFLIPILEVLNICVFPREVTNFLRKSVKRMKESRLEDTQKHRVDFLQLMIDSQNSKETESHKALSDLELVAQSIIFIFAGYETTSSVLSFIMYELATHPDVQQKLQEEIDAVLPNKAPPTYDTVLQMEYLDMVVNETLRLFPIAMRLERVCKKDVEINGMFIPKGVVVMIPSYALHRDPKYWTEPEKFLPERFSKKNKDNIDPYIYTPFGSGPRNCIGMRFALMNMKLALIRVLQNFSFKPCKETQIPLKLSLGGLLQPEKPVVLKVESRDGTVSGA
Summary of the method: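 Compounds in DMSO were pin-transferred onto CYP3A4 enzyme-substrate mix and held 10 min at room temperature. NADPH regenerating solution started the reaction for 1 h; luciferin detection reagent stopped it, and luminescence was read after 20 min.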

[3] = molecular target: Voltage-gated inwardly rectifying potassium channel KCNH2 (Homo sapiens) (UniProt Q12809); assay: Human Ether-a-go-go-Related Gene (hERG) channel small molecule antagonists: fluorescence cell-based qHTS assay (AID 1671200)
Chain of UniProt Q12809 (Q12809 whole entry, looked up): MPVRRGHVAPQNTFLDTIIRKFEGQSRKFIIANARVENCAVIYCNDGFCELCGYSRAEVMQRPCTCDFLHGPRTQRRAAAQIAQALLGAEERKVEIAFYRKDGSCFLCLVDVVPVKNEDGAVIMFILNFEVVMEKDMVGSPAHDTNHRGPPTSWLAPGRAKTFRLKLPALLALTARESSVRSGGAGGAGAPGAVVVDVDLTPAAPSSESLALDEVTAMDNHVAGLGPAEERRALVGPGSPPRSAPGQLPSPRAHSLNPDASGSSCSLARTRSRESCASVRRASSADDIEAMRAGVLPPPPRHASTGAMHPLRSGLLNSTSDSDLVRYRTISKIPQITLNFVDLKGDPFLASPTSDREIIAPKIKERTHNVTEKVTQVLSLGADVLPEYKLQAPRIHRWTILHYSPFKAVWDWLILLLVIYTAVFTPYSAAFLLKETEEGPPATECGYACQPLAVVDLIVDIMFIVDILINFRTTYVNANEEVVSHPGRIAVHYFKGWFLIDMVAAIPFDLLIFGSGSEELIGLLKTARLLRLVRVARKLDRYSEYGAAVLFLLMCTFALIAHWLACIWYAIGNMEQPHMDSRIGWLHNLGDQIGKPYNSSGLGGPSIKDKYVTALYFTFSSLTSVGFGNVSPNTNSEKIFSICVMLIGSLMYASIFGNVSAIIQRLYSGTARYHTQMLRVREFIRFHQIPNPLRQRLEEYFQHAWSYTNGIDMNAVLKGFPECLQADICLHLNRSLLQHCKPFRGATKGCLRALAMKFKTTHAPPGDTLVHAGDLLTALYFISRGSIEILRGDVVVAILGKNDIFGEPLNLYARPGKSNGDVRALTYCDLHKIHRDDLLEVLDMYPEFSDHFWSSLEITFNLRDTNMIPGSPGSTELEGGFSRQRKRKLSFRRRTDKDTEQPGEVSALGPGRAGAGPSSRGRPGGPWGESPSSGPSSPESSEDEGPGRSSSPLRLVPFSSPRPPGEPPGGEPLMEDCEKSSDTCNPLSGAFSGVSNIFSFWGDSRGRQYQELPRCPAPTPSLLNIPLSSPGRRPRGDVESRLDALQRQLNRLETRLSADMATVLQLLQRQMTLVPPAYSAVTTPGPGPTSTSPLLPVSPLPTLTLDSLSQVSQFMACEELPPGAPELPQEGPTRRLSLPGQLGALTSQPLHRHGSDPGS
Summary of the method: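 Channel function was assessed by thallium flux. Cells seeded the previous day and kept at 37 C took up FluxOR II dye over 1 h in the dark at room temperature, then sat another 10 min before stimulation.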
Note: nearly all actives have a fitted effect of over 50% in size.
Potency is the fitted concentration of half-maximal effect; tags give direction and shape of the fitted curve.

Row | Structure (SMILES) | Potency [1] | Potency [2] | Potency [3]
1 | O=c1[nH]c2ccccc2n1CCCN1CCN(C(c2ccccc2)c2ccccc2)CC1 | inactive | inactive | –
2 | CC(C)(C)S | inconclusive: 73.4 µM [inhibitor, partial curve, poor fit] | inconclusive: 65.4 µM [inhibitor, partial curve] | inactive
3 | O=[N+]([O-])c1cccc(S(=O)(=O)O)c1 | active: 40.5 µM | – | active: 22.2 µM
4 | CC(C)Cc1ccc(C(C)C(=O)OCc2ccccn2)cc1 (stereo not given) | active: 32.3 µM | – | inconclusive: 21.3 µM [inhibitor, partial curve]
5 | CCCCCCCCCCCCCCN(CCO)CCO | active: 17.8 µM | inconclusive: 39.9 µM [inhibitor, partial curve] | inconclusive: 11 µM [inhibitor, full curve]
6 | CCOC(=O)C(C)Oc1ccc(Oc2cnc3cc(Cl)ccc3n2)cc1 (stereo not given) | inconclusive: 18.3 µM [inhibitor, full curve, poor fit] | – | active: 15.9 µM and active: 18.3 µM
7 | O=c1[nH]cnc2c1ncn2[C@H]1CC[C@@H](CO)O1 | inconclusive: 63.3 µM [inhibitor, partial curve] | – | inactive
8 | COc1ccc(S(=O)(=O)N2C(=O)[C@@](c3ccccc3OC)(N3C[C@H](O)C[C@H]3C(=O)N(C)C)c3cc(Cl)ccc32)c(OC)c1 | inconclusive: 35.6 µM [inhibitor, partial curve] | – | inconclusive: 54.9 µM [inhibitor]
9 | O[C@@H](CNC[C@H](O)[C@H]1CCc2cc(F)ccc2O1)[C@@H]1CCc2cc(F)ccc2O1 | inactive | – | active: 2.68 µM
10 | COc1ccc(CCN(C)CCCC(C#N)(c2cc(OC)c(OC)c(OC)c2)C(C)C)cc1OC (stereo not given) | inactive | – | active: 7.56 µM
11 | O=C(/C=C/c1ccccc1)OC/C=C/c1ccccc1 | active: 28.3 µM | – | inconclusive: 21.9 µM [inhibitor, full curve]
12 | CC(C)(C)OC(=O)N1C[C@@H](F)C[C@H]1C(=O)O | inconclusive: 41.3 µM [inhibitor, partial curve] | – | inactive
13 | O=C1C=CC(=O)N1c1cccc(N2C(=O)C=CC2=O)c1 | active: 15.9 µM | – | inconclusive: 54.9 µM [inhibitor, single point]
14 | CCCCC(CC)COC(=O)C(C#N)=C(c1ccccc1)c1ccccc1 (stereo not given) | inconclusive: 21.9 µM [inhibitor, partial curve] | – | inconclusive: 34.7 µM [inhibitor, partial curve]
15 | NC(=O)NC(N)=O | inconclusive: 64.4 µM [inhibitor] | – | inactive
16 | O=C1CCCCCCCCCCCCCCO1 | inconclusive: 44.8 µM [inhibitor, partial curve] | inconclusive: 31.7 µM [inhibitor, partial curve] | inconclusive: 34.7 µM [inhibitor, partial curve]
17 | CC1CCc2nccnc21 (stereo not given) | inconclusive: 63.3 µM [inhibitor, partial curve] | – | inactive
18 | CN1CCN(Cc2cc(-c3ccc4[nH]c(=O)oc4c3)co2)[C@@H](c2ccc(F)cc2)C1 | inactive | inconclusive: 27.2 µM [inhibitor, full curve] | inconclusive: 29.7 µM [inhibitor, partial curve, poor fit]
19 | CC(=O)/C=C/C=C1/C2CCC(C2)C1(C)C (stereo not given) | active: 21.9 µM | – | inactive
20 | CC1=CC(=O)CC(C)(C)C1(O)/C=C/C(C)=C\C(=O)O (stereo not given) | inconclusive: 62.6 µM [inhibitor, partial curve, poor fit] | – | inactive
21 | CN(C)Cc1cc(C(C)(C)C)c(O)c(C(C)(C)C)c1 | inconclusive: 35.6 µM [inhibitor, partial curve, poor fit] | inconclusive: 28.3 µM [inhibitor, partial curve] | inconclusive: 54.9 µM [inhibitor, partial curve]
22 | CCOC(=O)c1ccc(C2CCC(NC[C@H](O)COc3ccc(O)c(NS(C)(=O)=O)c3)CC2)cc1 (stereo not given in full) | inactive | – | inconclusive: 18 µM [inhibitor, full curve]
23 | Cc1ccc(S(=O)(=O)C(I)I)cc1 | active: 31.7 µM | active: 39.9 µM | inconclusive: 69.2 µM [inhibitor, partial curve, poor fit]
24 | CCCCC(CC)COC(=O)CCCCCCCC(=O)OCC(CC)CCCC (stereo not given) | active: 35.6 µM and inactive | active: 5.64 µM | inconclusive: 43.6 µM [inhibitor, partial curve]
